# Laboratory results taken from publication PMC4336329 (PLoS ONE, 2015).
# Screen size: about 310,000 compounds; about 14,000 (4.5%) showed an effect of 50% or more. Effects have a minus sign here. The list shows a part of the results.
# Target: human ether-à-go-go-related gene (hERG) potassium channel (human, UniProt Q12809)
# Test: primary screen, population patch clamp on CHO cells stably expressing hERG
# 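Further: peak tail current of the secondary pulse compared with the same well before compound.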
# Chain of human ether-à-go-go-related gene (hERG) potassium channel (Q12809 whole entry, looked up): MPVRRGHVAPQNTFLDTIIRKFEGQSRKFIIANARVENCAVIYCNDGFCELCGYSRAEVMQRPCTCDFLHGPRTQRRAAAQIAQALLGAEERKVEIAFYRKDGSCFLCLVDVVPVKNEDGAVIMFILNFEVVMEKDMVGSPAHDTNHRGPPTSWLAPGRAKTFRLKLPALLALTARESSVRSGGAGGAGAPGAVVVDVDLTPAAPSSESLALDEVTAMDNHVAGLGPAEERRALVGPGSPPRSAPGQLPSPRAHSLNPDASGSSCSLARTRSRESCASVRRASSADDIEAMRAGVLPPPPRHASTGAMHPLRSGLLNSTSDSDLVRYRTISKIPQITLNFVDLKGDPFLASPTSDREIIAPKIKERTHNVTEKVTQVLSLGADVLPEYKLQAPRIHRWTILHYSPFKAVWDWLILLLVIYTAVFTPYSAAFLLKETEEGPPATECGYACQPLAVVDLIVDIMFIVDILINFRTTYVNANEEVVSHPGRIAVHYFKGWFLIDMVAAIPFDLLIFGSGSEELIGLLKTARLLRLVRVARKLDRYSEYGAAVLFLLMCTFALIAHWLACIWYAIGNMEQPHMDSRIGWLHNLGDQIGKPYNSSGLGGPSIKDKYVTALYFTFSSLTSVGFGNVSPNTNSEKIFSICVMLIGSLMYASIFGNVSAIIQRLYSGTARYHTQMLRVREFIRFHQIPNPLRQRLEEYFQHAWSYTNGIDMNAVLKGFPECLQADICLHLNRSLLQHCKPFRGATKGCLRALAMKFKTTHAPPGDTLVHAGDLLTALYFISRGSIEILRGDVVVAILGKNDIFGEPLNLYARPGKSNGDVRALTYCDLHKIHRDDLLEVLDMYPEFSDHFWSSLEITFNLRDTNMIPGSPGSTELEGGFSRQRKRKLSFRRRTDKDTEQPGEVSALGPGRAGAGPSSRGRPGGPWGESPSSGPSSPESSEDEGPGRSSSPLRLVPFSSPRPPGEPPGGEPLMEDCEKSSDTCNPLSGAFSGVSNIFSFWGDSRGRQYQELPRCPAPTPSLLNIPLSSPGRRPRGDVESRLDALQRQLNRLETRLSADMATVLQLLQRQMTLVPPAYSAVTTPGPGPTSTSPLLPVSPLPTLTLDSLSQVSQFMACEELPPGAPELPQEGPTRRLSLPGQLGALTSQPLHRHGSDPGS
row,SMILES,"hERG current change (%, negative = inhibition) at 10uM"
1,CC(C)Sc1oc(-c2ccco2)nc1S(=O)(=O)c1ccc(F)cc1,-11.4%
2,CCc1ccc(N(C(=O)c2snc(C(N)=O)c2N)C(C(=O)NCCC(C)C)c2c[nH]c3ccccc23)cc1 (stereo not shown),3.62%
3,Nc1ncc(-c2cc3ccccc3oc2=O)s1,4.52%
4,COC(=O)Nc1ccc(S(=O)(=O)N2CCC(Cc3ccccc3)CC2)cc1,1.4%
5,C/C(=N\NC(=O)c1ccn(C)n1)c1ccco1,16.6%
6,CC(C)c1ccc(-n2c(O)c(/C=N/N3CCOCC3)c(=O)[nH]c2=S)cc1,-10.9%
7,COc1cc(/C=C2/C(=N)N3OC(C)=CC3=NC2=O)ccc1OCCOc1ccc(C)cc1,20%
8,CC(C)CNc1oc(-c2ccc(F)cc2)nc1C#N,3.91%
9,COc1ccccc1/C=C/C(=O)OCC(=O)N1CCc2ccccc21,1.68%
10,COC(=O)C1=C[C@@H](C(=O)OC)[C@@H]2C3=C(C(=O)C2(C)C)[C@H](c2ccccc2)[C@@H]2C(=O)N(C)C(=O)[C@@H]2[C@@H]3C1,7.08%
11,CSc1cccc(N2C(=O)C3CCCN3C2=S)c1 (stereo not shown),16.6%
12,CCS(=O)(=O)N1CCN(S(=O)(=O)c2ccc(Cl)s2)CC1,8.16%
13,O=C(Nn1c(C2CCCCC2)nc2ccccc2c1=O)c1ccc(Cl)c([N+](=O)[O-])c1,-9.26%
14,Cc1ccc(CN2CC(C(=O)N(C)CC(=O)Nc3cccc(F)c3)CC2=O)cc1 (stereo not shown),-7.16%
15,COc1cc(/C=N/NC(=O)c2ccccn2)ccc1OC(=O)c1ccccc1Br,-1.22%
16,COc1cccc(NC(=O)c2ccco2)c1,8.44%
17,CCn1c(=O)c2ccccc2n2c(SCC(=O)N3CCc4ccccc4C3)nnc12,-32.7%
18,CSCc1ccc(C(=O)NC2CC(C)(C)Cc3c2cnn3-c2ccc(F)cc2)o1 (stereo not shown),-56.5%
19,O=C1C(=O)N(Cc2cccnc2)C(c2ccccn2)/C1=C(/O)c1ccc(F)cc1 (stereo not shown),7.66%
20,COc1cccc(C2=CC(=O)C[C@H](c3ccc(Cl)cc3)C2)c1OC,19.1%
21,COc1ccc(O)c(C(=O)c2cnn(C(=O)c3cccc(S(=O)(=O)N4CCOCC4)c3)c2)c1,12.4%
22,CCN(CC)C(=O)c1cncc(C(=O)N(CC)CC)c1-c1ccccc1,-4.08%

row,SMILES,"hERG current change (%, negative = inhibition) at 10uM"
1,CN(C)c1cccc(C(=O)Nc2cc(C(F)(F)F)ccc2-n2cnc3ccccc32)c1,-18.6%
2,Cc1ccccc1C(=O)NCCCNC(=O)c1cnccn1,13.5%
3,Cc1ccc(OC2CCN(C(=O)C3CCC(=O)N(C4CC4)C3)CC2)cc1 (stereo not shown),-15.8%
4,Cc1[nH]c2ccccc2c1/C=N/NC(N)=S,2.1%
5,NC(=O)C1(N2CCCCC2)CCN(CC(=O)Nc2ccc(Oc3ccccc3)cc2)CC1,-67.8%
6,Cc1csc(NC(=O)CSC2=NS(=O)(=O)c3cc(F)ccc3N2)n1,11.2%
7,O=C(Nc1ccccc1Oc1ccsc1C(=O)O)c1ccccc1F,17.9%
8,CC(C)(C)OC(=O)N1Cc2cc3ccccc3nc2C1CO (stereo not shown),8.85%
9,CCc1c(C)sc(NC(=S)Nc2nc(C)cc(C)n2)c1C(=O)OC,27.1%
10,CCCCCCCCOC(=O)CCc1c(C)[nH]c(=S)[nH]c1=O,5.35%
11,CC(C)CN(C(=O)CSc1nncs1)c1c(N)n(CC(C)C)c(=O)[nH]c1=O,17.5%
12,COc1ccc2[nH]c(=O)c(CN(C(C)=O)c3ccc(C)cc3C)cc2c1,1.02%
13,O=C(O)CCCn1cc(NC(=O)COc2ccc(F)cc2F)cn1,13.6%
14,CN(C(=O)COC(=O)/C=C/c1ccc(C(F)(F)F)cc1)C1CCS(=O)(=O)C1 (stereo not shown),9.35%
15,CC(OC(=O)c1cccc(N2C(=O)c3ccccc3C2=O)c1)C(=O)Nc1ccc(N(C)C)cc1 (stereo not shown),13.2%
16,O=Cc1cnc2ccccc2c1-c1ccccc1,-19.1%
17,CN1CCN(C2=Nc3c(Cl)cc(Cl)c4cccc2c34)CC1,5.23%
18,COc1cc2ccccc2cc1C(=O)N1CCN(c2ccccc2O)CC1,-59.7%
19,CCCCCOc1ccc(NS(C)(=O)=O)cc1,-5.55%
20,CCn1cc(C(=O)OCC(=O)Nc2ccc(S(=O)(=O)N3CCCC3)cc2)c(=O)c2ccc(C)nc21,10.5%
21,CC(C)(C)NC(=O)COC(=O)c1ccc(Cl)nc1,3.55%
22,COCCOc1cc(NC(=O)c2cccc(OC)c2)c(Cl)cc1Cl,6.22%

row,SMILES,"hERG current change (%, negative = inhibition) at 10uM"
1,CC1=NOC2(C1)/C(=N/O)CCC/C2=N\O (stereo not shown),9.67%
2,CN(C)/C=C1\NC(=S)N(c2ccccc2)C1=O,28.4%
3,Cc1oc(-c2ccccc2F)nc1CSCC(=O)NC1CCC(C)CC1 (stereo not shown),-25.6%
4,CC1=C(C(=O)OCC2CCCO2)C(c2ccccc2)C2=C(CCCC2=O)N1 (stereo not shown),11.2%
5,O=C(Oc1ccc(Cl)c2cccnc12)c1cccc([N+](=O)[O-])c1,-6.11%
6,Cc1c(C(=O)NC2CCC(C)CC2)oc2ccccc12 (stereo not shown),4.77%
7,COc1ccc(NC(=O)CN(C)C(=O)CCCc2nc3ccccc3s2)cc1,-27.7%
8,N#Cc1cnn2ccc(-c3ccc4c(c3)CCC4)nc12,14.4%
9,CC(=O)c1c(C)[nH]c(C(=O)Nc2ccc(Cl)c(S(=O)(=O)N(C)C)c2)c1C,-15.6%
10,CCC1C(=O)N=C(SCC(=O)Nc2ccccc2)NC1=O (stereo not shown),7.99%
11,CSc1cnn(Cc2ccccc2)c(=O)c1SCc1ccccc1,-9.54%
12,Nc1n[nH]c(C2CCCCC2)n1,17.7%
13,O=[N+]([O-])c1ccc2c(c1)Nc1nc3ccccc3nc1N2,12.8%
14,Cn1c(Cc2ccccc2)nnc1SCC(=O)Nc1cccc(S(=O)(=O)NC2=NCCCCC2)c1,-14.8%
15,Cc1ccc(NC(=O)NC2CCCc3ccccc32)cc1 (stereo not shown),-4.06%
16,COc1ccc(C(=O)N2CCN(Cc3cc(OC)ccc3OC)CC2)cc1.O=C(O)C(=O)O,-36%
17,Cc1ccc(OCC(=O)NC(=S)Nc2ccc(Br)cn2)cc1,9.16%
18,CCn1nc(NS(=O)(=O)c2ccc(C)cc2)c2cc3ccccc3nc21,1.64%
19,COc1cccc(C2(O)CCN(C(=O)Cc3cccnc3)CC2)c1,15.9%
20,Cc1ccccc1NC(=O)c1sc2nc[nH]c(=O)c2c1C,3.94%
21,CCOC(=O)c1c(-c2ccccc2)oc2ccc(OCC(O)CNCCN(C)C)cc12 (stereo not shown),-21.6%
22,CCOC(=O)c1c(NC(=O)CN2CCN(C(=O)c3ccco3)CC2)sc(C(N)=O)c1C,-20.1%

row,SMILES,"hERG current change (%, negative = inhibition) at 10uM"
1,CCC(=O)Nc1c(C)c(CC)nc2ccccc12,-9.49%
2,COC(=O)NNC(=S)NCc1ccccc1,8.48%
3,Cc1ccc(NC(=O)CSc2n[nH]c(-c3ccncc3)n2)cc1C,10.5%
4,CCCCN(CCCC)S(=O)(=O)c1ccc(C(=O)Nc2nnc(CSC)o2)cc1,-3.41%
5,CC1CCCCC1NC(=O)CSC1=Nc2ccccc2C2CC=NN12 (stereo not shown),-2.41%
6,Cn1c(Cn2c(=O)sc3ccccc32)nnc1SCC(=O)NCCc1ccccc1,-13.2%
7,O=C(c1ccc(Cn2c(=S)[nH]c3cc4c(cc3c2=O)OCO4)cc1)N1CCN(c2ncccn2)CC1,2.15%
8,Cc1cc(=O)oc2cc3c(cc12)CCCN3,20.7%
9,COc1ccc(-c2ccc(F)cc2)cc1[C@H]1[C@H]2C=CC[C@@H](C)[C@@H]2C(=O)N1Cc1ccccc1,8.24%
10,C=CCc1ccccc1OCCNCCCOC.O=C(O)C(=O)O,-1.3%
11,COc1ccc2ccc(C(C)(C(C)=O)C(=O)OC(C)C)cc2c1 (stereo not shown),1.48%
12,O=C(Nc1ccccc1)/C(=C/c1cccnc1)NC(=O)c1ccco1,-4.49%
13,Nc1c(C(=O)NCc2ccccc2)nnn1Cc1cccc(Cl)c1,12.8%
14,CSC1=NCCN1C(=O)c1cccc(Br)c1,-11.2%
15,CCOC(=O)CNC(=S)N(Cc1ccccc1)Cc1ccccc1F,-16.2%
16,Br.CCOCc1cn(CC(=O)c2ccc([N+](=O)[O-])cc2)c(C)nc1=N,-17.8%
17,Clc1ccc(-c2cn3ccccc3n2)cc1,-4.25%
18,C#CCOCCOCCOCCNc1nc(N2CCN(C(=O)CCCCCCCCCCNC(=O)[C@H](CO)n3cc(CCCSC)nn3)CC2)nc(N2CCN(C(=O)CCCCCCCCCCNC(=O)[C@H](CCCCN)n3cc(C[C@@H](C)CC)nn3)CC2)n1,-0.212%
19,O=S(=O)(c1ccc(F)cc1)N1CCCC1,10.9%
20,CCC(Sc1nc(C)cc(=O)[nH]1)C(=O)Nc1ccc(Cl)cn1 (stereo not shown),0.299%
21,CN(C(=O)c1cc2c(=O)n3ccccc3nc2s1)C1CCCCC1,-11.5%
22,O=C(Nc1ccccc1C(=O)N1CCOCC1)c1ccc(CSc2ccccc2)cc1,-19.9%
